Measured values as given in PubChem BioAssay AID1745845 (National Center for Advancing Translational Sciences (NCATS), 2022).
Out of some 360,000 compounds screened, about 2,600 (0.72%) were called active. The shares of active, inactive and inconclusive entries below differ from those in the screen. Calls come from the whole dose curve; as a rule, active = well fitted inhibition curve with a large enough effect; inconclusive = small, poorly fitted or top-dose-only effect; inactive = no such curve, though single readings can be large or run the other way. Potencies beside an inconclusive call are fits to weak or partial responses and may not hold up.

Experiment: Primary qHTS for Inhibitors of ATXN expression; note: nearly all actives have a fitted effect of over 55% in size
Conditions: HEK-293 ATXN2-luciferase reporter, luminescence, 24 h; activity change, negative = inhibition: at 57 µM (top of the series)
Outline: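 qHTS (up to 57 uM final) was run with 24 h compound exposure of reporter cells at 37 °C. Each well was multiplexed: SteadyGlo luminescence measured ATXN2-luciferase expression after a fluorogenic Gly-Phe-AFC viability readout (25 uM final).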
% is set by controls: 0 for no effect and ±100 for the full control effect; potency is the fitted concentration of half-maximal effect; tags give direction and shape of the fitted curve.

Row | SMILES | activity change, negative = inhibition | Potency
1 | Cc1cc(OC(C)C(=O)N2CCN(CCc3ccccn3)CC2)ccc1Cl (configuration not stated) | inactive: 0.28% | 
2 | Cc1cc2ncc(-c3ccc(Cl)cc3)c(N)n2n1 | inactive: 19.9% | 
3 | Cc1nn(-c2ccccc2)c2c1C(O)n1c(nc3ccccc31)S2 (configuration not stated) |  | inconclusive: 39.8 µM [inhibitor, single point]
4 | COc1ccc(Nc2ncc(C(=O)N3CCN(c4ccc(OC)cc4)CC3)c3ccccc23)cc1 |  | inconclusive: 28.2 µM [inhibitor, partial curve]
5 | C#C[C@]1(O)CCC2C3CCC4=Cc5oncc5CC4(C)C3CCC21C (some centres not stated) |  | inconclusive: 39.8 µM [inhibitor, single point]
6 | NC(=O)N/N=C/c1cn(-c2ccccc2)nc1-c1cccs1 | inactive: 36.9% | 
7 | O=C(Nc1cccc(-c2nn[nH]n2)c1)c1ccc(Br)s1 | inactive: -1.81% | 
8 | COc1ccc(NC(=O)c2c(NCc3cccs3)sc3c2CCCCC3)cc1 |  | inconclusive: 39.8 µM [inhibitor, partial curve, poor fit]
9 | CCCCC1Cc2[nH]c(=S)[nH]c(=O)c2C(c2cccc3ccccc23)O1 (configuration not stated) | inactive: 14.4% | 
10 | Nc1nc(-c2ccccn2)nc(N)c1Cc1ccccc1F |  | inconclusive: 39.8 µM [inhibitor, single point]
11 | Oc1ccc(C=NNC(=S)Nc2cccnc2)nc1 |  | inconclusive: 13.4 µM [inhibitor, partial curve, poor fit]
12 | O=C(c1cc(-c2ccccc2Cl)on1)N1CCCC1 |  | inconclusive: 14.1 µM [inhibitor, single point]
13 | CCc1cccc(CC)c1NC(=S)NCc1ccc2[nH]c(C)cc2c1 |  | inconclusive: 37.7 µM [inhibitor, single point]
14 | Cc1c(C(=O)NNS(=O)(=O)c2ccccc2Cl)sc(=S)n1C | inactive: 4.11% | 
15 | O=C1CCCC(O)=C1C(C#Cc1ccccc1)C1=C(O)CCCC1=O |  | inconclusive: 39.8 µM [inhibitor, single point]
16 | CCCCCC(=O)N1C[C@@H](n2cc(-c3ccc(F)cc3)nn2)[C@H](O)C[C@@H]1c1ccc(C)cc1 |  | inconclusive: 15.8 µM [inhibitor, partial curve, poor fit]
17 | Cc1ccc(C(=O)C[n+]2ccc(Cc3ccccc3)cc2)cc1 |  | inconclusive: 42.3 µM [inhibitor, single point]
18 | O=C(c1cc2nc(-c3ccco3)cc(C(F)(F)F)n2n1)N1CCc2ccccc2C1 | inactive: -7.36% | 
19 | Cc1cccc(/C=N/NC(=O)c2ccc(Br)cc2)c1 | inactive: 33.3% | 
20 | Cc1ccc(SC(=O)c2c(C)noc2-c2cc(C)on2)cc1 | inactive: 2.76% | 
21 | O=C(Nc1cccc(-c2nc3cccnc3s2)c1)C1c2ccccc2Oc2ccccc21 |  | inconclusive: 2.67 µM [inhibitor, partial curve, poor fit]
22 | Cc1cc(C)n(-c2ccc(C(=O)Nc3ccc(C)c(S(=O)(=O)N4CCOCC4)c3)cc2)n1 |  | inconclusive: 12.6 µM [inhibitor, single point]
23 | Cc1oc2ncnc(N3CCCCC3)c2c1C(=O)NCC1CCN(Cc2cccc(F)c2)CC1 | inactive: -1.78% | 

Row | SMILES | activity change, negative = inhibition | Potency
24 | COc1ccc(CCNC(=S)NC(=O)c2ccc(Br)cc2)cc1OC |  | inconclusive: 0.947 µM [inhibitor, partial curve, poor fit]
25 | Cc1ccnc(NC(=S)N2CCN(c3cccc(C(F)(F)F)c3)CC2)c1 |  | inconclusive: 28.2 µM [inhibitor, partial curve, poor fit]
26 | COc1cccc(NC(=O)Nc2nc(SC(C)(C)C)ns2)c1 |  | inconclusive: 35.5 µM [inhibitor, single point]
27 | Cc1ccc(-n2cccc2C(=S)N=P(N(C)C)(N(C)C)N(C)C)cc1 |  | inconclusive: 35.5 µM [inhibitor, single point]
28 | CC1CCCCC1NC(=S)Nc1ccc(SC(F)F)cc1 (configuration not stated) |  | inconclusive: 39.8 µM [inhibitor, single point]
29 | Cc1cc(NC(=O)CSc2nnc(NC(=O)C3CC(=O)N(c4ccccc4)C3)s2)no1 (configuration not stated) |  | inconclusive: 4.47 µM [inhibitor, partial curve, poor fit]
30 | Cc1cccc(OCC(=O)NCC(=O)N/N=C/c2cc(Br)cc(Br)c2O)c1 |  | active: 14.1 µM
31 | C=CC12C=CC=CN1C(C(=O)OC)=C(C(=O)OC)C(C(=O)OC)=C2C(=O)OC (configuration not stated) |  | inconclusive: 7.08 µM [inhibitor, single point]
32 | Cn1ccc2c(N(Cc3ccccc3)Cc3ccccc3)cc3c(c21)C1CCC3O1 (configuration not stated) | inactive: 11.2% | 
33 | COc1ccc(C)cc1NC(=O)CSc1nnc(COc2ccc(Cl)cc2)n1Cc1ccco1 |  | inconclusive: 39.8 µM [inhibitor, single point]
34 | CCCCC[C@H](O)/C=C/[C@H]1CCC(=O)[C@@H]1CCCCCCC(=O)N1CCCCC1CO (some centres not stated) |  | inconclusive: 22.4 µM [inhibitor, partial curve, poor fit]
35 | Cc1ccc(N2C(=O)CSC23C(=O)N(Cc2ccccc2F)c2ccccc23)cc1F (configuration not stated) |  | inconclusive: 17.8 µM [inhibitor, partial curve, poor fit]
36 | CCC(CO)Oc1cc(NCc2ccccc2C(F)(F)F)c2ncn(C(C)C)c2c1 (configuration not stated) |  | inconclusive: 35.5 µM [inhibitor, single point]
37 | Cn1c(SCC(=O)N2CCCCC2)nc2c([nH]c3ccccc32)c1=O | inactive: -4.14% | 
38 | COC(=O)/C(=N/Nc1ccc(C)cc1)N1CCCc2ccccc21 | inactive: 9.35% | 
39 | COc1ccccc1C(=O)NNC(=O)c1nn(Cc2ccccc2)c(=O)c2ccccc12 |  | inconclusive: 29.9 µM [inhibitor, partial curve, poor fit]
40 | O=C(CCCN1C(=O)/C(=C/c2cccs2)SC1=S)NNC(=O)c1ccccc1O |  | inconclusive: 10 µM [inhibitor, partial curve, poor fit]
41 | COc1ccc(C)cc1Nc1n[n+](-c2ccccc2)c(-c2cc(OC)c(OC)cc2Br)s1 |  | inconclusive: 31.6 µM [inhibitor, partial curve]
42 | O=C(Nc1cccc(Cl)c1)OCCOCCOC(=O)Nc1cccc(Cl)c1 |  | inconclusive: 15.8 µM [inhibitor, partial curve, poor fit]
43 | CCOc1cc(CNCCO)cc(Br)c1OCc1ccccc1 |  | inconclusive: 15.8 µM [inhibitor, partial curve, poor fit]
44 | CN1CCN(S(=O)(=O)c2cccc(C(=O)Nc3sc4c(c3-c3nc5ccccc5[nH]3)CCCC4)c2)CC1 | inactive: 56.4% | 
45 | CN(C(=O)Cn1nnc(-c2cccnc2)n1)C1CCCCC1 | inactive: -10.6% | 
46 | Cc1cccc(N(CC(=O)NCCSCc2ccccc2)S(=O)(=O)c2ccccc2)c1C |  | inconclusive: 28.2 µM [inhibitor, partial curve, poor fit]

Row | SMILES | activity change, negative = inhibition | Potency
47 | Cc1ccc(-n2c(=O)[nH]c3c(C(N)=O)nc(C(C)C)nc32)cc1 | inactive: -27.4% | 
48 | CCCCN(C)C(=O)c1ccc2c(c1)N(Cc1cccc(F)c1)C(=O)c1ccccc1S2 |  | inconclusive: 31.6 µM [inhibitor, single point]
49 | COc1cc(CNC(=O)Nc2nc(C(N)Cc3ccc(C(F)(F)F)cc3)cs2)cc(OC)c1OC (configuration not stated) |  | inconclusive: 35.5 µM [inhibitor, single point]
50 | Cc1cccc(N(C)C(=O)c2cc3c(=O)[nH]c4ccc(C)cc4c3s2)c1 |  | inconclusive: 11.2 µM [inhibitor, partial curve, poor fit]
51 | CCOc1ccc(NC(=O)CN(C)C(=O)C2CC(=O)N(CCc3ccccc3)C2)cc1OCC (configuration not stated) | inactive: -9.54% | 
52 | O=C(NC(NC(=S)Nc1cccc(Cl)c1)C(Cl)(Cl)Cl)OCc1ccccc1 (configuration not stated) |  | inconclusive: 39.8 µM [inhibitor, single point]
53 | COc1cc(OC)cc(-c2c(Sc3ccccc3)c3cc(-c4ccc5c(c4)OCCO5)ccc3n2C)c1 | inactive: -0.241% | 
54 | CCOCCCNC(=O)/C(C#N)=C/c1ccc(Cl)c([N+](=O)[O-])c1 |  | inconclusive: 37.7 µM [inhibitor, single point]
55 | O=C(NC12CC3CC(CC(C3)C1)C2)c1ccc([N+](=O)[O-])cc1 | inconclusive: -46% [inhibitor] | 
56 | O=C(c1cnc(N2CCN(c3ccccn3)CC2)c2ccccc12)N1CCN(c2cccc(Cl)c2)CC1 |  | inconclusive: 16.8 µM [inhibitor, partial curve, poor fit]
57 | Cn1nnnc1Sc1ncnc2scc(-c3ccsc3)c12 |  | active: 14.1 µM
58 | C/C(Cn1nnc([N+](=O)[O-])n1)=N\NC(=O)c1ccncc1 |  | inconclusive: 33.6 µM [inhibitor, single point]
59 | COc1ccccc1C(CCN(Cc1cccs1)C(C)=O)c1ccco1 (configuration not stated) | inactive: -10.5% | 
60 | O=C(CNC(=O)c1cccc(OC(F)F)c1)Nc1ccc(Cl)cc1 | inactive: -7.24% | 
61 | CC1CCN(c2nc(Cl)nc(Nc3ccc([N+](=O)[O-])cc3)n2)CC1 |  | inconclusive: 39.8 µM [inhibitor, single point]
62 | O=C(Nc1ccc2nc3n(c(=O)c2c1)CCCCC3)c1cccc(C(F)(F)F)c1 |  | inconclusive: 6.31 µM [inhibitor, partial curve]
63 | COc1cc2c(=O)n(Cc3ccco3)c(=O)n(CC(=O)c3cccc(Br)c3)c2cc1OC |  | inconclusive: 28.2 µM [inhibitor, single point]
64 | Cc1ccc(S(=O)(=O)Nc2ccc(O)c3cccnc23)cc1 |  | active: 22.4 µM
65 | COc1ccc(CC(N)c2csc(NC(=O)CCc3ccccc3)n2)cc1 (configuration not stated) |  | inconclusive: 15.8 µM [inhibitor, partial curve]
66 | O=C(c1cncc(Br)c1)N1CCN(c2ccc([N+](=O)[O-])cc2)CC1 |  | inconclusive: 39.8 µM [inhibitor, partial curve, poor fit]
67 | COc1ccc(C(C)=O)cc1CSc1nc2ccccc2c(=O)n1-c1cccc(C)c1 |  | inconclusive: 31.6 µM [inhibitor, single point]
